Measurements from PubChem BioAssay (NCATS).
The inconclusive results got no clear call from the source; some entries with a clear call stand among them for comparison. For part of these data: Potencies of inconclusive entries are doubtful fits and often do not repeat. Active and inactive are the calls of the source. Unless noted, calls follow the shape of the dose curve; as a rule, active = well fitted curve in the direction sought with a large enough effect; inconclusive = small, poorly fitted or top-dose-only effect, or another doubt; inactive = no such curve, though single readings can be large; an effect the other way counts as inactive or inconclusive.

What was measured:
[1] = tested on: Zika virus NS2B-NS3 protease (linked construct); assay: Primary screen NINDS Rhodamine qHTS for Zika virus inhibitors (AID 1347160); also: potency is read from the fitted curve at half-maximal effect; nearly all actives have a fitted effect of over 55% in size
Outline: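 Kinetic fluorescence (Ex 480 nm, Em 540 nm) over 15 min with 1.5 microM Rhodamine110 peptide and 25 nM linked protease.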

[2] = OV-KATE Cancer Cell Toxicity qHTS against the NCATS CANVASS Library (AID 1347345); also: potency is read from the fitted curve at half-maximal effect; as to activity change, negative = cytotoxicity: % is scaled to controls: 0 for no effect and ±100 for the full control effect
Outline: (§1)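 Toxicity is measured over 72 h of compound exposure at 37 degrees C under 5% CO2. Each well holds 1000 cells, pre-incubated for 4 hours before dosing across an 11-point range. CellTiter-Glo luminescence gives viability.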

[3] = UWB1.289 Cancer Cell Toxicity qHTS against the NCATS CANVASS Library (AID 1347347); also: nearly all actives have a fitted effect of over 60% in size; also: potency is read from the fitted curve at half-maximal effect; as to activity change, negative = cytotoxicity: % is scaled to controls: 0 for no effect and ±100 for the full control effect
Outline: as §1

[4] = OV-SAHO Cancer Cell Toxicity qHTS against the NCATS CANVASS Library (AID 1347348); settings: OV-SAHO viability, CellTiter-Glo luminescence, 72 h; activity change, negative = cytotoxicity: at 38.3 µM (top of the series); also: potency is read from the fitted curve at half-maximal effect; nearly all actives have a fitted effect of over 55% in size
Outline: as §1

[5] = Panc-1005 Cancer Cell Toxicity qHTS against the NCATS CANVASS Library (AID 1347349); also: potency is read from the fitted curve at half-maximal effect; nearly all actives have a fitted effect of over 60% in size
Outline: as §1

[6] = A2780 Cisplatin Sensitive Ovarian Cancer Cell Toxicity qHTS against the NCATS CANVASS Library (AID 1347353); also: potency is read from the fitted curve at half-maximal effect; nearly all actives have a fitted effect of over 60% in size
Outline: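 A2780 cells, 750/well, settled 4 h at 37 °C, then treated with an 11-point compound series for 72 h. Viability was read as ATPLite luminescence after 10 min at room temperature, with bortezomib as control.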

[7] = HEK293 24hr Apoptosis Induction qHTS against the NCATS CANVASS Library (AID 1347359); also: 0% is about no effect
Outline: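 Caspase-3/7 activation measured as luminescence from the DEVD-based Caspase-Glo reagent, 15 min at room temperature, following 24-hour compound treatment of HEK293 cells.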

[8] = target: Luciferin 4-monooxygenase (Photinus pyralis) (UniProt P08659); assay: Firefly luciferase counterscreen qHTS: Assay Interference Panel against the NCATS CANVASS Library (AID 1347363); also: potency is read from the fitted curve at half-maximal effect
Sequence of UniProt P08659 (P08659 whole entry, looked up): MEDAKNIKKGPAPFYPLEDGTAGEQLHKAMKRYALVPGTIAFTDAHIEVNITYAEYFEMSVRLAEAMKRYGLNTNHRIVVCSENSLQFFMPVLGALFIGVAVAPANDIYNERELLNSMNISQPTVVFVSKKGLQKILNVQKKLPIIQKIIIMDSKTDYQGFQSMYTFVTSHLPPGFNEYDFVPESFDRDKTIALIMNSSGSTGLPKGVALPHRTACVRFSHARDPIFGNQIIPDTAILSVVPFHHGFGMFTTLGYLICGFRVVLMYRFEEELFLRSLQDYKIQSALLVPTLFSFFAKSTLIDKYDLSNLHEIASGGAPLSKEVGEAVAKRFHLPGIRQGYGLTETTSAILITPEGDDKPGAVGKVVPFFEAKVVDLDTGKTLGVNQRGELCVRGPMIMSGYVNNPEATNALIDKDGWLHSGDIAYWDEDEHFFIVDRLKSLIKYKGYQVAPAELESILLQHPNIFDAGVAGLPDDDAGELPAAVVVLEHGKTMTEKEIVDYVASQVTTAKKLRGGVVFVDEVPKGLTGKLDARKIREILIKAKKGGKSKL
Outline: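 Luminescence inhibition readout: compounds (11-point qHTS) sat 15 min at room temperature with substrate mix (0.013 mM luciferin and ATP), then firefly luciferase was added and signal read 5 min later.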

[9] = G06 Cancer Cell Toxicity qHTS against the NCATS CANVASS Library (AID 1347368); also: potency is read from the fitted curve at half-maximal effect; nearly all actives have a fitted effect of over 60% in size
Outline: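 G06 dog glioma cells, 500 per well, exposed 72 hr at 37C, 5% CO2 to compounds in an 11-point series. Cytotoxicity read as ATP content by CellTiterGlo luminescence.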

[10] = target: Nuclear receptor subfamily 1 group I member 3 (Homo sapiens) (UniProt Q14994); assay: qHTS for Constitutive Androstane Receptor (CAR) Agonist screened against the NCATS CANVASS Library (AID 1347373);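 also: every well also contained 1.5 µM PK11195 alongside the test compound; potency is read from the fitted curve at half-maximal effect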
Sequence of UniProt Q14994 (Q14994 whole entry, looked up): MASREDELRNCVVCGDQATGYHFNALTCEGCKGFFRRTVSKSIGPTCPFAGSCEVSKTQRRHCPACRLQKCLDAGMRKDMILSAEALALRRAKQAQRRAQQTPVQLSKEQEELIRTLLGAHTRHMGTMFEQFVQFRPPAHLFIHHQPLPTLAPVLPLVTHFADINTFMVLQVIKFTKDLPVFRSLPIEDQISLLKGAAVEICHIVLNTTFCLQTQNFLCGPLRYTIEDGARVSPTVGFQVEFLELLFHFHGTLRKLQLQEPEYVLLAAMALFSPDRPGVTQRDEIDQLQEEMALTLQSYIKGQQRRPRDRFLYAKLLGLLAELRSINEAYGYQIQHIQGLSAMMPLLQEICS
Outline: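 HepG2 cells stably carrying hCAR and a CYP2B6-2.2kb luciferase reporter, treated 24hr at 37C with compounds plus 1.5uM PK11195; activation by ONE-Glo luminescence, viability by CellTiter-Fluor.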

[11] = qHTS for inhibitors of ER calcium dysfunction: SERCaMP assay screened against the NCATS CANVASS Library (AID 1347393); settings: SH-SY5Y GLuc-SERCaMP (Gaussia luciferase released on ER calcium loss) secretion, thapsigargin, luminescence; activity change, negative = inhibition: at 76.6 µM (top of the series);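 also: % is scaled to controls: 0 for no effect and ±100 for the full control effect; lower secreted reporter signal means inhibitor of ER calcium depletion; nearly all actives have a fitted effect of over 40% in size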
Outline: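 Thapsigargin-induced ER calcium depletion drives GLuc-SERCaMP secretion from SH-SY5Y cells; compounds given 16 h beforehand were scored by lowered coelenterazine luminescence after 4 h challenge.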

[12] = qHTS for inhibitors of Rabies Virus screened against the NCATS CANVASS Library (AID 1347402; calls by dose curve; also: potency is read from the fitted curve at half-maximal effect; as to activity change, negative = inhibition: 0% is about no effect)
[13] = HPAF-II Cancer Cell Toxicity qHTS against the NCATS CANVASS Library (AID 1347346); also: potency is read from the fitted curve at half-maximal effect; nearly all actives have a fitted effect of over 55% in size
Outline: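 HPAF-II cells at 1000 cells/well were treated with an 11-point concentration series for 72 hours at 37 degrees C. Viability read by CellTiter-Glo luminescence.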

[14] = U-118MG Cancer Cell Toxicity qHTS against the NCATS CANVASS Library (AID 1347351); also: potency is read from the fitted curve at half-maximal effect
Outline: as §1

[15] = HPAF-II 18hr Apoptosis Induction qHTS against the NCATS CANVASS Library (AID 1347360); also: 0% is about no effect
Outline: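 HPAF-II cells (500/well, DMEM + 10% FBS) were exposed to compounds for 18 hours at 37 degrees C. Caspase-3/7 activity was then read by Caspase-Glo 3/7 luminescence after 15 min at room temperature.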

[16] = KB-8-5-11 Cancer Cell Toxicity qHTS against the NCATS CANVASS Library (AID 1347364); also: potency is read from the fitted curve at half-maximal effect; nearly all actives have a fitted effect of over 75% in size
Outline: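 KB-8-5-11 cells, 500/well in DMEM + 10% FBS, given compounds in an 11-point series. Incubated 72 h at 37 °C. Viability by CellTiter-Glo luminescence. Confirmation also run with 1 uM tariquidar.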

[17] = qHTS for Activators of p53 Stress Response Pathway screened against the NCATS CANVASS Library (AID 1347388); also: potency is read from the fitted curve at half-maximal effect
Outline: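 Beta-lactamase reporter driven by p53 response elements in HCT-116 cells, read as the 460 nm/530 nm emission ratio after CCF4 loading, following 16 h of exposure to an 11-point series. Cell viability was measured in the same wells by CellTiter-Glo luminescence.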

[18] = qHTS assay for small molecule disruptors of mitochondrial membrane potential screened against the NCATS CANVASS Library (AID 1347389); also: nearly all actives have a fitted effect of over 60% in size; also: potency is read from the fitted curve at half-maximal effect
Outline: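 HepG2 cells (2,000/well) plated overnight, then exposed to compounds in 11-point qHTS series for 1 h at 37C before 30 min Mito-MPS dye; depolarization read as fall in red aggregate (590 nm) to green monomer (535 nm) fluorescence.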

[19] = Vero-766 cells viability qHTS against the NCATS CANVASS Library: Counterscreen for Zika virus inhibition assay (AID 1347394); also: nearly all actives have a fitted effect of over 60% in size; also: potency is read from the fitted curve at half-maximal effect
Outline: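 Uninfected Vero 766 (African green monkey) cells, 1000/well, attached overnight, then exposed 72 h at 37C to compounds (11-point qHTS). Viability read by CellTiter-Glo luminescence; media-only wells served as 100% inhibition.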

[20] = Redox Reaction Profiling qHTS: Assay Interference Panel against the NCATS CANVASS Library (AID 1347401);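 also: 100% = activation by 2 µM chloranil control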
Outline: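 Cell-free redox surrogate: 5 uM resazurin + 200 uM DTT, 50 mM HEPES pH 7.3/50 mM NaCl; cpds pinned, 11-pt qHTS; Ex525/Em598 read t0 and t=15 min, dark.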

[21] = COV-362 Cancer Cell Toxicity qHTS against the NCATS CANVASS Library (AID 1347352); also: potency is read from the fitted curve at half-maximal effect
Outline: (§2)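 Cells at 1000/well were given compound 4 h after plating in an 11-point series. Viability was read by CellTiter-Glo luminescence after 72 h at 37 degrees C.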

[22] = UWB1.289-WTBRCA1 Cancer Cell Toxicity qHTS against the NCATS CANVASS Library (AID 1347354); also: potency is read from the fitted curve at half-maximal effect
Outline: as §2

[23] = MCF7 Cancer Cell Toxicity qHTS against the NCATS CANVASS Library (AID 1347369); also: potency is read from the fitted curve at half-maximal effect
Outline: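 MCF7, 500 cells/well; cpds 11-pt qHTS; 72 hr, 37C/5% CO2; CellTiterGlo ATP luminescence.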

[24] = qHTS for Hypoxia signaling pathway (HIF-1) antagonists against the NCATS CANVASS Library (AID 1347374); also: nearly all actives have a fitted effect of over 60% in size; also: potency is read from the fitted curve at half-maximal effect;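 as to activity change, negative = inhibition: HRE-bla ME-180 cells stimulated with cobalt chloride to stabilize HIF-1alpha; % is scaled to controls: 0 for no effect and ±100 for the full control effect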
Outline: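 HRE-bla ME-180 cells in medium with 0.5% dialyzed FBS received compounds (11-point series) plus CoCl2 (60 uM addition stock) for 17 hrs at 37C. Beta-lactamase activity read with CCF4 (405 nm ex, 460/530 nm em); CellTiter-Glo viability measured in same wells.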

[25] = qHTS for activators of dead-cell proteases activity screened against the NCATS CANVASS Library (AID 1347392);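 also: luminescence from protease leaking out of membrane-damaged cells cleaving impermeant substrate; 0% is about no effect; rising signal means more cytotoxicity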
Outline: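 Compounds are pin-transferred onto attached HepG2 cells, giving 11 final concentrations. After 5 h at 37C, AAF-aminoluciferin reagent is added and luminescence is recorded at room temperature.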

[26] = qHTS for inhibitors of Wild type Zika virus screened against the NCATS CANVASS Library (AID 1347396); also: potency is read from the fitted curve at half-maximal effect
Outline: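 Protection against wild-type Zika cytopathic effect is measured in African green monkey Vero 766 cells exposed to an 11-point compound series. Surviving cells are quantified by CellTiter Glo luminescence after 72 h.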

[27] = qHTS for ATAD5 Agonist screened against the NCATS CANVASS Library (AID 1347367);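 also: luciferase reporter driven by ATAD5 which rises upon DNA damage; 0% is about no effect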
Outline: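 HEK293T cells stably carrying an ATAD5-controlled luciferase reporter (2000 cells/well) attached for 5 hr, then received compounds in an 11-point series for 16hr at 37C. Luminescence was read after a 30 min room-temperature reagent step.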

[28] = qHTS for Hypoxia signaling pathway (HIF-1) agonists against the NCATS CANVASS Library (AID 1347375); also: 0% is about no effect
Outline: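 HRE-bla ME-180 cells (0.5% dialyzed FBS) were pre-incubated 5 hrs at 37C, then exposed to compounds in an 11-point series for 17 hrs. Read-out was CCF4-AM beta-lactamase FRET (460/530 nm emissions), with CellTiter-Glo viability in the same wells.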

[29] = Secretion counterscreen for inhibitors of the SERCaMP assay screened against the NCATS CANVASS Library (AID 1347390);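 also: light from luciferase secreted into medium read as a measure of general secretion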; also: potency is read from the fitted curve at half-maximal effect
Outline: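 SH-SY5Y cells expressing constitutively secreted GLuc, 1000 cells/well, attached 4 h at 37C, then exposed to compounds (0.001 - 77 uM, 11-pnt series) for 20 h. Coelenterazine added; luminescence read to flag secretory-pathway interferers.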

[30] = J3T Cancer Cell Toxicity qHTS against the NCATS CANVASS Library (AID 1347371);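 also: J3T is a canine glioma cancer cell line seeded at 500 cells per well; % is scaled to controls: 0 for no effect and ±100 for the full control effect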
Outline: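 J3T dog glioma cells, 500 per well, treated 72 h at 37C with compounds (11-point qHTS); viability from ATP content by CellTiterGlo luminescence; bortezomib titration as control.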

[31] = qHTS for Inflammasome Signaling Inhibitors: IL-1-beta AlphaLISA screen against the NCATS CANVASS Library (AID 1347379)
Outline: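 THP-1 cells pretreated 1 hr with compound (up to 57.5 uM final), then stimulated with LPS (250 ng/mL final) and ATP (1.25 mM final). Secreted IL-1B measured by AlphaLISA after 16 hr; glyburide as positive control.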
Tags tell the direction and shape of the fitted curve.

c1ccc2nc3c(cc2c1)[nH]c1ccccc13
inconclusive: Potency [1] 49300 nM [inhibitor, partial curve] | Potency [4] 16700 nM [cytotoxic, partial curve] | Potency [5] 11900 nM [cytotoxic, partial curve] | Potency [6] 33200 nM [cytotoxic, single point] | Potency [9] 8330 nM [cytotoxic, full curve] | activity change, negative = inhibition [11] -38.7% [inhibitor]
active: Potency [8] 1720 nM | Potency [10] 18600 nM
inactive: Potency [2] | Potency [3] | Potency [7] | Potency [12]

CCC(=O)N[C@@H](C[C@H](C)C(Cl)(Cl)Cl)C(=O)N1C(=O)C=C(OC)[C@@H]1C[C@H](C)C(Cl)Cl
inconclusive: Potency [1] 55300 nM [inhibitor, partial curve, poor fit] | Potency [13] 29800 nM [cytotoxic, single point] | Potency [3] 29800 nM [cytotoxic, single point] | Potency [4] 29800 nM [cytotoxic, single point] | Potency [14] 21100 nM [cytotoxic, single point] | Potency [16] 18700 nM [cytotoxic, partial curve, poor fit] | Potency [17] 33100 nM [activator, partial curve, poor fit] | Potency [18] 37100 nM [inhibitor, partial curve, poor fit] | Potency [19] 13200 nM [cytotoxic, partial curve, poor fit] | Potency [12] 36900 nM [inhibitor, single point]
inactive: Potency [15] | Potency [20]

CO[C@H]([C@@H](C)[C@H]1O[C@]1(C)C[C@H](C)/C=C/C=C(\C)[C@H]1O[C@@H](CC(=O)O)CC[C@@H]1C)[C@@H](C)O
active: Potency [5] 37.5 nM | Potency [23] 5.2 nM | Potency [10] 105 nM | Potency [17] 14.8 nM
inconclusive: Potency [1] 98400 nM [inhibitor, partial curve, poor fit] | Potency [2] 29.8 nM [cytotoxic, full curve] | Potency [4] 59.4 nM [cytotoxic, full curve] | Potency [14] 106 nM [cytotoxic, full curve] | Potency [21] 37.5 nM [cytotoxic, full curve] | Potency [22] 59.4 nM [cytotoxic, full curve] | Potency [24] 3 nM [inhibitor, full curve, poor fit] | Potency [19] 105 nM [cytotoxic, full curve] | Potency [26] 41.4 nM [inhibitor, full curve]
inactive: Potency [18] | Potency [25]

CO[C@H]1[C@H](O[C@H]2CC[C@]3(C=O)[C@H]4CC[C@]5(C)[C@@H](C6=CC(=O)OC6)CC[C@]5(O)[C@@H]4CC[C@]3(O)C2)O[C@H](C)[C@H](O)[C@@H]1OC
active: Potency [13] 335 nM | Potency [16] 132 nM | Potency [24] 83.8 nM | Potency [29] 767 nM | Potency [19] 741 nM
inconclusive: Potency [1] 49300 nM [inhibitor, partial curve] | Potency [2] 265 nM [cytotoxic, full curve] | Potency [3] 118 nM [cytotoxic, full curve] | Potency [4] 149 nM [cytotoxic, full curve] | Potency [5] 74.9 nM [cytotoxic, full curve] | Potency [22] 149 nM [cytotoxic, full curve] | Potency [23] 262 nM [cytotoxic, full curve] | Potency [12] 261 nM [inhibitor, full curve]
inactive: Potency [27] | Potency [28]

C/C=C(\C)C(=O)O[C@@H]1[C@@H](O)[C@@H]2O[C@H]3[C@H](O[C@@H](CCCCC)CCCCCCC(=O)CCC(=O)OC[C@@H](O2)[C@H]1OC(=O)/C=C/c1ccccc1)O[C@H](C)[C@H](OC(C)=O)[C@@H]3O
inconclusive: Potency [1] 49300 nM [inhibitor, single point] | Potency [14] 59.5 nM [cytotoxic, partial curve, poor fit] | Potency [21] 83.8 nM [cytotoxic, full curve] | Potency [23] 33000 nM [cytotoxic, single point] | Potency [24] 9410 nM [inhibitor, partial curve, poor fit] | Potency [31] 38.5 nM [inhibitor, full curve] | Potency [12] 18500 nM [inhibitor, partial curve, poor fit]
inactive: Potency [30] | Potency [19]
active: Potency [3] 594 nM | Potency [4] 74.7 nM | Potency [18] 16600 nM

CCCCC1CC[C@H]2CCCC(CCC)N12 (some centres not stated)
inactive: Potency [24] | Potency [18] | Potency [29] | Potency [19]
inconclusive: Potency [3] 16700 nM [cytotoxic, partial curve] | Potency [6] 37200 nM [cytotoxic, single point]
